Among all 310,000 compounds or so, about 14,000 (4.5%) showed an effect of 50% or more. Effects have a minus sign here. The list shows a part of the results.
target: human ether-à-go-go-related gene (hERG) potassium channel (human, UniProt Q12809); assay: primary screen, population patch clamp on CHO cells stably expressing hERG
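Note: peak tail current of the secondary pulse compared with the same well before compound.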

Chain of human ether-à-go-go-related gene (hERG) potassium channel (Q12809 whole entry, looked up): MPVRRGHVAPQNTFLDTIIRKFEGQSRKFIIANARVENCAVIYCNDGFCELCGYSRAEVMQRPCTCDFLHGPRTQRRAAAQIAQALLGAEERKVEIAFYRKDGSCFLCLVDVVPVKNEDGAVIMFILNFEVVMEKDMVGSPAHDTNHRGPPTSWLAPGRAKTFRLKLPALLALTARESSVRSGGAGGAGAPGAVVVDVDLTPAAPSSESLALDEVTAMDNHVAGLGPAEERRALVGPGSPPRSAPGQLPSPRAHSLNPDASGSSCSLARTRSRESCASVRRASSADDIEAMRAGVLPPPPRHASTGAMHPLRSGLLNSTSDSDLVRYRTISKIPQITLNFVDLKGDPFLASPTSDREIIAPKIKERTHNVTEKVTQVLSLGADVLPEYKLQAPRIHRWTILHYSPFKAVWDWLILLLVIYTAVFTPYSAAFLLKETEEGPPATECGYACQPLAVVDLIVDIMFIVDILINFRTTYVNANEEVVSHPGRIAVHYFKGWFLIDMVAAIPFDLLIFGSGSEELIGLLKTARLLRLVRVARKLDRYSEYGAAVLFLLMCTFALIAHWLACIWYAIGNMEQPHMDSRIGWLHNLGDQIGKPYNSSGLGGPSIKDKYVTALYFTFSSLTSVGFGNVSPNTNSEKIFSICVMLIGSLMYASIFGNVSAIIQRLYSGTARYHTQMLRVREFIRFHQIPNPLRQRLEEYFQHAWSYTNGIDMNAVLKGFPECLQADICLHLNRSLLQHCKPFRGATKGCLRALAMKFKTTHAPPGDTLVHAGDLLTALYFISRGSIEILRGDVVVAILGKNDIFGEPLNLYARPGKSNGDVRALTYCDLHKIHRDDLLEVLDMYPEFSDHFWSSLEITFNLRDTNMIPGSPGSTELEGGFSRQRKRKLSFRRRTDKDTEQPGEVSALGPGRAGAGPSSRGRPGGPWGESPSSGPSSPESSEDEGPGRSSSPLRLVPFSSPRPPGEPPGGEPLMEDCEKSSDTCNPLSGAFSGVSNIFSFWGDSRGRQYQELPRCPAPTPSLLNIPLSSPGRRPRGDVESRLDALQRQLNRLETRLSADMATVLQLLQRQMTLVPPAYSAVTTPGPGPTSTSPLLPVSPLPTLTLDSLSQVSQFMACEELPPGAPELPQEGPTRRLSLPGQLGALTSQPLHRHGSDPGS

Row | SMILES | hERG current change (%, negative = inhibition) at 10uM [%]
1 | Cc1ccc(C(=O)NN2CC(O)=C(c3nc(-c4cccc([N+](=O)[O-])c4)cs3)C2=N)cc1 | 27.6
2 | CCOc1ccccc1NC(=O)C1CCN(S(=O)(=O)c2c(C)nn(C)c2C)CC1 | -4.45
3 | CCCN(CCC)CCCNC(=O)c1cn(CC)c2ccc(S(=O)(=O)N3CCOCC3)cc2c1=O | 12.8
4 | CC(C)c1cc(C(=O)N2CCN(C(c3ccccc3)c3ccccc3)CC2)no1 | -2.67
5 | CCCCNC(=O)CSc1nc2cc3c(cc2c(=O)n1CCC(=O)NCCc1ccc(OC)c(OC)c1)OCO3 | 30.6
6 | Cc1oc2c(CN3CCCCC3)c(O)ccc2c(=O)c1-c1ccc(Br)cc1 | -16.5
7 | CC(=O)Nc1ccc(NC(=O)CN(C)S(=O)(=O)c2ccc3ccccc3c2)cc1 | 17.5
8 | C=CCNC(=O)CN1CCC(n2nnc3cc(C(F)(F)F)ccc32)CC1 | -50.7
9 | O=C(CCc1ccccc1)Nc1ccc(F)cc1F | -21.2
10 | CC(Sc1nc(-c2ccc(F)cc2)cs1)C(=O)N1c2ccccc2CC1C (stereo not drawn) | 12.9
11 | COc1ccccc1/C=C/C(=O)OCC(=O)Nc1c(C)nn(-c2ccccc2)c1C | 0.662
12 | O=C(c1ccc(S(=O)(=O)NCc2ccco2)cc1)N1CCCC1 | 4.6
13 | O=C(c1ccccc1-n1cccc1)N1N=C(C(F)F)CC1(O)C(F)F (stereo not drawn) | -63.2
14 | COc1ccc(-n2nnnc2SCC(=O)Nc2nnn(C)n2)cc1 | -0.446
15 | COCCNC(=O)CN(C(=O)CCC(=O)Nc1ccccn1)c1ccc(F)cc1 | 14.3
16 | CC(=O)c1cccc(NC(=O)c2sc3nc4n(c(=O)c3c2C)CCCCC4)c1 | -4.86
17 | Cc1ccc(C)c(SCC(=O)NC(=O)Nc2ccc3c(c2)OCCO3)c1 | -1.6
18 | CC1C(=O)Nc2ccc(S(=O)(=O)N3CCCCCC3)cc21 (stereo not drawn) | -1.68
19 | Cc1cccc(CSc2nc3ccccc3c(=O)n2C)c1 | 3.75
20 | CCN(CC)S(=O)(=O)c1ccc(NC(=O)CN(c2cccc(F)c2)S(C)(=O)=O)cc1 | -3.73
21 | Cc1cc(Cl)ccc1OC(C)C(=O)Nc1ccc(C(=O)Nc2ccccc2C(=O)O)cc1 (stereo not drawn) | 16

Row | SMILES | hERG current change (%, negative = inhibition) at 10uM [%]
22 | O=C(O)c1ccc2c3c(ncnc13)-c1ccccc1C2=O | -8.87
23 | CCCc1ccc(C(=O)NNc2ccccc2F)cc1 | 2.3
24 | Cc1cc(=O)oc2c(C)c(OC(=O)c3ccco3)ccc12 | -8.69
25 | COc1ccc(C(=O)Oc2ccc(Br)cc2C(=S)N2CCOCC2)cc1 | -0.284
26 | COc1ccc(NC(=O)c2ccco2)c(NC(=O)Cc2cccs2)c1 | 3.62
27 | O=C(N/N=C/c1ccc(N2CCOCC2)cc1)C1COc2ccccc2O1 (stereo not drawn) | -15.5
28 | COc1ccccc1N(C)S(=O)(=O)c1ccc(C(=O)O)cc1 | 16
29 | Cc1cc(-c2ccc(C)c(S(=O)(=O)NCC3CCN(Cc4cccc(F)c4)CC3)c2)on1 | -39.1
30 | COc1ccccc1CNC(=O)COC(=O)c1cccc(S(=O)(=O)N2CCOCC2)c1 | -35.5
31 | COC(=O)COc1ccc(S(=O)(=O)N2CCN(c3ccccc3)CC2)cc1 | 25.3
32 | O=C(O)c1ccccc1Sc1ccccc1S(=O)(=O)NC1CCCCC1 | 20.4
33 | COc1ccc(C(=O)C2CCCCC2=O)cc1 (stereo not drawn) | 9.71
34 | CC1(C)Cc2cccc(Oc3ccc(S(=O)(=O)N4CCCCC4)cn3)c2O1 | -33.1
35 | CCN(CC)c1ccc(NC(=O)c2cccc(C)c2)cc1S(=O)(=O)Nc1ccccc1OC | 10.7
36 | CC(C)[C@H](NS(=O)(=O)c1ccc2c(c1)OCCO2)C(=O)OCC(=O)Nc1cccc(Cl)c1Cl | -9.56
37 | CCN(CC)S(=O)(=O)c1ccc(N2CC(C(=O)NCc3ccc4c(c3)OCO4)CC2=O)cc1 (stereo not drawn) | -7.88
38 | O=C(O)C(Oc1ccc2c3c(c(=O)oc2c1)CCC3)c1ccccc1 (stereo not drawn) | -12.7
39 | Cc1cc(C(=O)NNC(=O)c2c(-c3c(Cl)cccc3Cl)noc2C)no1 | 15.5
40 | Cc1ccccc1CN1CCN(c2ccc(S(=O)(=O)N3CCCC3)cn2)CC1 | -8.46
41 | COc1ccc(/C(C)=N/NC(=O)c2nnn(-c3nonc3N)c2-c2cccs2)cc1OC | 6.89
42 | O=C(Nc1ccc(S(=O)(=O)NC2=NCCCCC2)cc1)c1ccc(=O)[nH]c1 | 19.4

Source: paper PMC4336329 (PLoS ONE, 2015)
